Target: biotinylated DCAF15 and Bodipy-FL-labelled Bromodomain 1 (BD1) in BRD4 (Homo sapiens, UniProt O60885+Q66K64)
Test: Assay A time-resolved fluorescence resonance energy transfer (TR-FRET)
Type: binding
Details: DCAF15 150 nM, BRD4 BD1 150 nM, Tb-streptavidin 2 nM

SMILES	EC50 [µM]
Cc1sc2c(c1C)C(c1ccc(Cl)cc1)=N[C@@H](CC(=O)NCCOCCOCCNC(=O)c1ccc(S(=O)(=O)Nc3ccc(C)c4c(C#N)c[nH]c34)cc1)c1nnc(C)n1-2	> 10
Cc1sc2c(c1C)C(c1ccc(Cl)cc1)=N[C@@H](CC(=O)NCCOCCOCCOCCNC(=O)c1ccc(S(=O)(=O)Nc3ccc(C)c4c(C#N)c[nH]c34)cc1)c1nnc(C)n1-2	> 10
Cc1sc2c(c1C)C(c1ccc(Cl)cc1)=N[C@@H](CC(=O)NCCOCCOCCOCCOCCOCCNC(=O)c1ccc(S(=O)(=O)Nc3ccc(C)c4c(C#N)c[nH]c34)cc1)c1nnc(C)n1-2	> 10
Cc1sc2c(c1C)C(c1ccc(Cl)cc1)=N[C@@H](CC(=O)NCCOCCOCCNC(=O)c1cccc(S(=O)(=O)Nc3ccc(C)c4c(C#N)c[nH]c34)c1)c1nnc(C)n1-2	> 10
Cc1sc2c(c1C)C(c1ccc(Cl)cc1)=N[C@@H](CC(=O)NCCOCCOCCOCCNC(=O)c1cccc(S(=O)(=O)Nc3ccc(C)c4c(C#N)c[nH]c34)c1)c1nnc(C)n1-2	> 10
Cc1sc2c(c1C)C(c1ccc(Cl)cc1)=N[C@@H](CC(=O)NCCOCCOCCOCCOCCNC(=O)c1cccc(S(=O)(=O)Nc3ccc(C)c4c(C#N)c[nH]c34)c1)c1nnc(C)n1-2	> 10
Cc1sc2c(c1C)C(c1ccc(Cl)cc1)=N[C@@H](CC(=O)NCCOCCOCCOCCOCCOCCNC(=O)c1cccc(S(=O)(=O)Nc3ccc(C)c4c(C#N)c[nH]c34)c1)c1nnc(C)n1-2	> 10
Cc1sc2c(c1C)C(c1ccc(Cl)cc1)=N[C@@H](CC(=O)NCCCCCCNC(=O)c1ccc(S(=O)(=O)Nc3ccc(C)c4c(C#N)c[nH]c34)cc1)c1nnc(C)n1-2	> 10

Source: US20210002295A1, “SMALL MOLECULE DEGRADERS THAT RECRUIT DCAF15” (Dana-Farber Cancer Institute, Inc., priority 2017, published 2021)
